The source of these data is the supplement of paper PMC4166925.

± gives the standard deviation of the averaged measurements. Whole data set: some 33,000 sequences, median “E-score (dimensionless, -0.5 to 0.5)” near -0.049, cut for the highest 2% near 0.37. The list shows a part of the results.

This assay relates to T1, PmTbr T-box DNA-binding domain (GST fusion).
T1 sequence: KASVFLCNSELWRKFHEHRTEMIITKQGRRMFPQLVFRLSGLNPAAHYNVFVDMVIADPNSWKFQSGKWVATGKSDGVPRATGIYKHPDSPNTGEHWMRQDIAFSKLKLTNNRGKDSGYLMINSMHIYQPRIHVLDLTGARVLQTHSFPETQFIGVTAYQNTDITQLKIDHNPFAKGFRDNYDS
Briefly: PBM E-score of 8-mer (E-score (dimensionless, -0.5 to 0.5)); Tbr is Tbrain of the sea star Patiria miniata (Pm) or the sea urchin Strongylocentrotus purpuratus (Sp); higher = stronger binding preference; most listed sequences are background and not binding sites. The note with it: the construct has about 5 more residues each side. Summed up:
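Universal Agilent oligonucleotide arrays, made double-stranded by primer extension, were incubated with 200 nM GST-fused Tbr T-box DNA-binding domain in PBS (pH 7.5). The protein was expressed in BL21 E. coli at 20 °C and purified by glutathione affinity chromatography. After scanning and quantification, the Universal PBM Analysis Suite assigned an enrichment E-score to each ungapped 8-mer, averaged over duplicate arrays.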
For the sequence AATATGAT, the “PBM E-score of 8-mer” value is -0.165 ± 0.057.

On to CGCTTTTA, for which the “PBM E-score of 8-mer” value is -0.114 ± 0.1.

Take ATCACGGC: the “PBM E-score of 8-mer” value is 0.0908 ± 0.0041.

AGTGCAGC: the “PBM E-score of 8-mer” value was -0.0478 ± 0.021.

With ACGATCGA, the “PBM E-score of 8-mer” value was -0.0138 ± 0.025.

Take CTAGAGGC: the “PBM E-score of 8-mer” value was -0.143 ± 0.012.

Regarding CCGTCTCG, the “PBM E-score of 8-mer” value is -0.0597 ± 0.066.

On to GTGCCGGA, for which the “PBM E-score of 8-mer” value worked out at 0.119 ± 0.052.

For the sequence CTGTCGGA, the “PBM E-score of 8-mer” value is 0.101 ± 0.044.

GGCATAAC: the “PBM E-score of 8-mer” value is -0.0559 ± 0.021.

With AACATGGG, the “PBM E-score of 8-mer” value was -0.0997 ± 0.059.

For the sequence AGATGCTA, the “PBM E-score of 8-mer” value amounted to 0.0692 ± 0.038.

Turning to ACACGTGG, the “PBM E-score of 8-mer” value came to 0.307 ± 0.022.

As to AAATGCAT, the “PBM E-score of 8-mer” value was -0.134 ± 0.011.

Consider ATGACAGG, for which the “PBM E-score of 8-mer” value is -0.00481 ± 0.016.

Regarding ACAAGTCA, the “PBM E-score of 8-mer” value was found to be 0.108 ± 0.036.

With AGCAAGGC, the “PBM E-score of 8-mer” value was -0.0115 ± 0.038.

As to CCAATCGC, the “PBM E-score of 8-mer” value worked out at 0.119 ± 0.036.

Consider TCCAGCCA, for which the “PBM E-score of 8-mer” value was -0.0544 ± 0.058.

ACCCTTGG: the “PBM E-score of 8-mer” value worked out at 0.0547 ± 0.038.

Take TACAGTGA: the “PBM E-score of 8-mer” value was determined as 0.133 ± 0.051.

With TGCAGGCA, the “PBM E-score of 8-mer” value was -0.0674 ± 0.13.

As for AACTTGCT, the “PBM E-score of 8-mer” value was -0.046 ± 0.09.

Regarding TATTCCGA, the “PBM E-score of 8-mer” value is -0.274 ± 0.013.

In the case of CGCATAAC, the “PBM E-score of 8-mer” value was determined as 0.0175 ± 0.069.

Consider ATTACGTC, for which the “PBM E-score of 8-mer” value is -0.181 ± 0.016.

TACTGCAA: the “PBM E-score of 8-mer” value came to 0.0487 ± 0.026.

In the case of ACCTGGAG, the “PBM E-score of 8-mer” value amounted to 0.0832 ± 0.12.

As for GCTCGACA, the “PBM E-score of 8-mer” value came out at 0.198 ± 0.029.

In the case of CAGGCCTC, the “PBM E-score of 8-mer” value was -0.19 ± 0.003.

CGAAACAC: the “PBM E-score of 8-mer” value is 0.296 ± 0.011.

With GACTTCCC, the “PBM E-score of 8-mer” value was -0.0361 ± 0.067.

Regarding AACAAGGC, the “PBM E-score of 8-mer” value was determined as 0.118 ± 0.11.

On to CACGATTC, for which the “PBM E-score of 8-mer” value turned out to be 0.189 ± 0.0081.

Consider CACGTCAG, for which the “PBM E-score of 8-mer” value worked out at 0.244 ± 0.011.

Turning to ATAACTAA, the “PBM E-score of 8-mer” value is -0.022 ± 0.026.

Take ATGTTTAC: the “PBM E-score of 8-mer” value is -0.0873 ± 0.024.

Regarding CGTAGGAG, the “PBM E-score of 8-mer” value is -0.0595 ± 0.057.

Consider ACTGGTCC, for which the “PBM E-score of 8-mer” value was -0.4 ± 0.044.

On to TCCATCAA, for which the “PBM E-score of 8-mer” value came to 0.0136 ± 0.076.

Take GGAGGTGA: the “PBM E-score of 8-mer” value worked out at 0.4036 ± 0.0026.

Take AAACCTTG: the “PBM E-score of 8-mer” value was -0.132 ± 0.0072.

Regarding GGCTGCAC, the “PBM E-score of 8-mer” value stood at 0.111 ± 0.035.

In the case of GGCATTAA, the “PBM E-score of 8-mer” value was -0.146 ± 0.0047.

GATGCTTA: the “PBM E-score of 8-mer” value was -0.19 ± 0.024.

On to AGTCAACC, for which the “PBM E-score of 8-mer” value was -0.007 ± 0.035.

On to GCGCAGAA, for which the “PBM E-score of 8-mer” value was -0.0316 ± 0.067.

On to AAGTATCT, for which the “PBM E-score of 8-mer” value is -0.264 ± 0.021.

Take CGCTCAAC: the “PBM E-score of 8-mer” value is -0.116 ± 0.022.

As to AGCAGGAT, the “PBM E-score of 8-mer” value was -0.147 ± 0.033.

On to ACCCCCGC, for which the “PBM E-score of 8-mer” value is -0.113 ± 0.093.

Turning to ACATTCGA, the “PBM E-score of 8-mer” value is -0.164 ± 0.02.

On to ATAATAAT, for which the “PBM E-score of 8-mer” value was -0.24 ± 0.091.

In the case of GTTGGGAA, the “PBM E-score of 8-mer” value was 0.011 ± 0.035.

As to GAACAGAC, the “PBM E-score of 8-mer” value was -0.101 ± 0.044.

Take GGGATATA: the “PBM E-score of 8-mer” value is -0.124 ± 0.0044.

As to AGCCGGGC, the “PBM E-score of 8-mer” value is -0.205 ± 0.045.

On to GAGCAGGC, for which the “PBM E-score of 8-mer” value is -0.108 ± 0.058.

ATCATAAG: the “PBM E-score of 8-mer” value was 0.00266 ± 0.074.

Take TAGGCCAA: the “PBM E-score of 8-mer” value is -0.298 ± 0.065.

For the sequence AGCCCCGA, the “PBM E-score of 8-mer” value was -0.174 ± 0.041.

ATTCGATC: the “PBM E-score of 8-mer” value is -0.214 ± 0.0051.

GTGGGTAA: the “PBM E-score of 8-mer” value was -0.00386 ± 0.027.

As to GACAGGCA, the “PBM E-score of 8-mer” value is -0.0532 ± 0.041.

With ACTGAAGT, the “PBM E-score of 8-mer” value is -0.11 ± 0.0012.

For the sequence AAAGTATT, the “PBM E-score of 8-mer” value was -0.0791 ± 0.099.

As to CGGTGTAA, the “PBM E-score of 8-mer” value amounted to 0.131 ± 0.037.

Regarding CACGCGCC, the “PBM E-score of 8-mer” value was found to be 0.228 ± 0.024.

Regarding GGTATAGA, the “PBM E-score of 8-mer” value was -0.262 ± 0.027.

TTATGGAA: the “PBM E-score of 8-mer” value was -0.0117 ± 0.0076.

In the case of GTCAGAGA, the “PBM E-score of 8-mer” value is -0.0902 ± 0.085.

As for ATGCAAAC, the “PBM E-score of 8-mer” value is -0.106 ± 0.061.

As to ATTGACGA, the “PBM E-score of 8-mer” value was 0.0689 ± 0.061.

On to CAGCCTGA, for which the “PBM E-score of 8-mer” value is -0.112 ± 0.04.

Turning to CCCATAAA, the “PBM E-score of 8-mer” value was -0.107 ± 0.0037.

As for ACTTTTAC, the “PBM E-score of 8-mer” value was -0.0251 ± 0.02.

Turning to ACAGGAGT, the “PBM E-score of 8-mer” value is 0.016 ± 0.00085.

Regarding AGCACGGC, the “PBM E-score of 8-mer” value amounted to 0.0625 ± 0.026.

Take ACTTAGAA: the “PBM E-score of 8-mer” value is -0.0174 ± 0.056.

Turning to GAGTCCCC, the “PBM E-score of 8-mer” value is -0.222 ± 0.01.

For ATCCAATC, the “PBM E-score of 8-mer” value is -0.137 ± 0.054.

Turning to TACGCTGA, the “PBM E-score of 8-mer” value is -0.202 ± 0.051.

Consider AGAAATAA, for which the “PBM E-score of 8-mer” value is 0.0198 ± 0.018.

Turning to AATGGTGA, the “PBM E-score of 8-mer” value was 0.11 ± 0.02.

In the case of GCCATAGA, the “PBM E-score of 8-mer” value was -0.0661 ± 0.067.

Consider CGGGCTGA, for which the “PBM E-score of 8-mer” value was -0.115 ± 0.075.

Turning to AGACTTAA, the “PBM E-score of 8-mer” value is -0.105 ± 0.0092.

Take AATCTTAA: the “PBM E-score of 8-mer” value is -0.162 ± 0.061.

On to CGGCGAAA, for which the “PBM E-score of 8-mer” value is -0.1403 ± 0.00085.

As for CGCCTGTA, the “PBM E-score of 8-mer” value came out at 0.101 ± 0.06.

As to ATCCGGAG, the “PBM E-score of 8-mer” value was -0.126 ± 0.02.

For AAACAATG, the “PBM E-score of 8-mer” value was found to be 0.0542 ± 0.0052.

With AATAAATG, the “PBM E-score of 8-mer” value was -0.177 ± 0.031.

Turning to AGAAGTCG, the “PBM E-score of 8-mer” value was found to be 0.113 ± 0.02.

Turning to CATGTCTA, the “PBM E-score of 8-mer” value was 0.0713 ± 0.011.

Turning to GTGGGCTA, the “PBM E-score of 8-mer” value was -0.206 ± 0.087.

Take CCCACCGG: the “PBM E-score of 8-mer” value was -0.143 ± 0.047.

With GTGGATGA, the “PBM E-score of 8-mer” value was -0.174 ± 0.05.

Take ACATGCAT: the “PBM E-score of 8-mer” value was -0.0914 ± 0.013.

Regarding AAGCCGTC, the “PBM E-score of 8-mer” value was determined as 0.0552 ± 0.029.

On to GAACCTGC, for which the “PBM E-score of 8-mer” value is -0.162 ± 0.0065.

For the sequence AGATTTAC, the “PBM E-score of 8-mer” value is -0.0888 ± 0.039.

ACTGTCAT: the “PBM E-score of 8-mer” value is 0.163 ± 0.037.

With AAGAACAA, the “PBM E-score of 8-mer” value was -0.22 ± 0.012.

Regarding AAACAGGC, the “PBM E-score of 8-mer” value is -0.177 ± 0.0041.

As to GGAGAGAA, the “PBM E-score of 8-mer” value worked out at 0.0991 ± 0.033.

Turning to ATGGTACC, the “PBM E-score of 8-mer” value is -0.0911 ± 0.059.

Turning to TGCACACA, the “PBM E-score of 8-mer” value turned out to be 0.093 ± 0.022.

CTTCGATC: the “PBM E-score of 8-mer” value is -0.112 ± 0.023.

As for CACAACGG, the “PBM E-score of 8-mer” value is 0.219 ± 0.045.
